The values that follow come from PubChem BioAssay AID1963838 (Molecular Pharmacology Branch, DTP, NCI, 2024).

Not every entry of the source has a single result; some have several. This list holds those alone. An entry can have further records. Values given together are repeated measurements across runs, samples, wells, individuals or studies. Additions like (4×) stand for listed records that agree.

For this assay, the system named is 855422-203-R-J1-PDC complex spheroid viability. As to the kind of experiment: Anticancer human tumor 855422-203-R-J1-PDC patient-derived bladder carcinoma cell line growth inhibition [POLQ]. Conditions: stronger effect = lower value. On the procedure:
Multicellular complex tumor spheroid response to Polymerase (POL) inhibitors (novobiocin, ART-558, RP6685) in combination with a variety of drugs and investigational agents in selected tumor cell lines
The POL inhibitors (novobiocin, ART-558, and RP6685) were evaluated both individually and in combination with standard of care and investigational anticancer small molecules within a complex spheroid model of solid tumors. . Complex spheroids include a stromal component modeled by human endothelial cells (HUVEC) and fibroblasts modeled by human mesenchymal stem cells (MSCs). The concentration ranges selected for each drug and investigational agent were based upon clinically achievable concentrations if the clinical Cmax of the agent was known.
Compounds. The drugs and investigational agents: novobiocin (NSC847541), ART-558 (NSC835418), RP-6685 (NSC848927), peposertib (NSC802822), ceralasertib (NSC780249), elimusertib (NSC800525), camonsertib (NSC841442), AZD-1390 (NSC803789), olaparib (NSC753686), talazoparib (NSC767125), rucaparib (NSC756644), sotorasib (NSC818433), MRTX-1133 (NSC836407), SN-38 (NSC673596), topotecan (NSC609699), epotoside (NSC141540), doxorubicin (NSC123127), gemcitabine (NSC613327), 5-fluorouracil (NSC19893), paclitaxel (NSC125973), vemurafenib (NSC761431), MSA-2 (NSC828583), SN-011 (NSC837082), adavosertib (NSC754352), prexasertib (NSC758257), carboplatin (NSC241240) and oxaliplatin (NSC266046), were obtained from the National Cancer Institute (NCI) Developmental Therapeutics Program Chemical Repository (21). The FDA-approved anticancer drug set is available from the Developmental Therapeutics Program at https://dtp.cancer.gov/organization/dscb/obtaining/. […] If the clinical Cmax for an agent had not been determined, the highest concentration tested was 10 microM, except for SN-38, which was tested at a high concentration of 1 microM. […]
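Further: spheroids exposed to compounds for seven days before readout.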

Turning to `Cc1cccc(N(C)C(=O)C2C(O)CCN2c2nc(C)cc(C(F)(F)F)c2C#N)c1` (stereo not drawn), the viability, T/C (compound alone 0.1 µM) was 101, 86.3, 111, 99.8, 89.3, 99.7, 114, 109 (3×), 93.1, 86.2, 100%.

For the compound `COC1C(OC(N)=O)C(O)C(Oc2ccc3c(O)c(NC(=O)c4ccc(O)c(CC=C(C)C)c4)c(=O)oc3c2C)OC1(C)C` (stereo not drawn), under “compound alone 10 µM”, the viability, T/C is 104, 100, 103, 88.9, 108, 105, 110, 99.3, 116, 94.2, 99 (2×), 107%. Consider `Nc1ccc(C#CCN(C(=O)Cc2ncc(C(F)(F)F)cc2C(F)(F)F)c2ccc(F)cc2)nn1`, for which, for the setting “compound alone 1 µM”, the viability, T/C was 108, 101, 99.8, 113 (2×), 104, 95.3, 94.9, 120, 94.7, 97.2, 109, 95.5%.
